In paper PMC4336329 (PLoS ONE, 2015):
Screen size: about 310,000 compounds; about 14,000 (4.5%) showed an effect of 50% or more. The effect is printed as a negative number. The list shows a part of the results.

Each molecule was assayed against human ether-à-go-go-related gene (hERG) potassium channel (human, UniProt Q12809) (assay: primary screen, population patch clamp on CHO cells stably expressing hERG).
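Further: peak tail current of the secondary pulse compared with the same well before compound.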

Chain of human ether-à-go-go-related gene (hERG) potassium channel (Q12809 whole entry, looked up): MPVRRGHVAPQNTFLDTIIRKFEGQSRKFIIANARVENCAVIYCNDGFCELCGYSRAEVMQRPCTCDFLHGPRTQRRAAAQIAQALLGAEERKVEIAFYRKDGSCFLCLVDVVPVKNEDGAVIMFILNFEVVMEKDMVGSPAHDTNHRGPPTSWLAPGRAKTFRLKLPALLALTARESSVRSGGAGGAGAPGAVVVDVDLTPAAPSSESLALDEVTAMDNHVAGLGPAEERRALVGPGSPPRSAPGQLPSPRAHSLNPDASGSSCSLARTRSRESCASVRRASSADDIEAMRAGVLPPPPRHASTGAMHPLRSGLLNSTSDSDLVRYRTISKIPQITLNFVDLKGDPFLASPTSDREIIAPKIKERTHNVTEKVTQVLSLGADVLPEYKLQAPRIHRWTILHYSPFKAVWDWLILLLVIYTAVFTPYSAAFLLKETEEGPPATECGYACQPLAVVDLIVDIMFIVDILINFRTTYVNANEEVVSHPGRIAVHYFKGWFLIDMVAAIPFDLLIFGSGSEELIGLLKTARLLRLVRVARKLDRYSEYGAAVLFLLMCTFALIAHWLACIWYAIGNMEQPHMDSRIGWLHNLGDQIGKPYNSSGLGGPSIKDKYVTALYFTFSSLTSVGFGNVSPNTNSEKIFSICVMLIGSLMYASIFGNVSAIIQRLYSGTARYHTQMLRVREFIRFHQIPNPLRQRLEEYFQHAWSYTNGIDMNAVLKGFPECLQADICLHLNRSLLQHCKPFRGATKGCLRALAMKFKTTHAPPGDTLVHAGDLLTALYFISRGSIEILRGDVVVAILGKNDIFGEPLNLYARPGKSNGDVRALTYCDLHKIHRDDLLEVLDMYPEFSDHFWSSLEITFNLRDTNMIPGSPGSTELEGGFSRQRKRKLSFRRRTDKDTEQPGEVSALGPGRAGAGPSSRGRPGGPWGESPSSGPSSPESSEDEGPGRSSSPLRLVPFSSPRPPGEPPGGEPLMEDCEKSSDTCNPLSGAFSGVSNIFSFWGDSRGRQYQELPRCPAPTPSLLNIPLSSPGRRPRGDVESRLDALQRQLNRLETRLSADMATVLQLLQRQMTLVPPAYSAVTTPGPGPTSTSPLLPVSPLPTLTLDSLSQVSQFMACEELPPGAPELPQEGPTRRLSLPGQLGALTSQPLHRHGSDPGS

| Structure (SMILES) | hERG current change (%, negative = inhibition) at 10uM [%] |
| --- | --- |
| CCOc1ccc(CCNC(=O)CCn2nc(C)c3c(C)n(-c4ccccc4)nc3c2=O)cc1 | -11.9 |
| CCCCCCCCN1[C@@H](CC(=O)O)c2cc(F)ccc2S1(=O)=O | 7.81 |
| COc1cccc(NC(=O)COc2coc(CN3CCc4ccccc4C3)cc2=O)c1 | 6.68 |
| O=C(CNC(=O)c1ccncc1)N/N=C/c1cccc([N+](=O)[O-])c1 | -10.2 |
| Cc1cccc(C(=O)Nc2cccc(S(=O)(=O)NCc3ccco3)c2)c1 | 1.6 |
| CNS(=O)(=O)c1ccc(CCC(=O)N2CCOCC2)cc1 | 13.6 |
| CC1Cc2cc(S(=O)(=O)N3CCN(c4cccc(Cl)c4)CC3)ccc2N1C(=O)C1CC1 (centres unmarked) | 23 |
| COc1ccc(C2CC2/C(=N/O)c2ccccn2)cc1 (centres unmarked) | 5.57 |
| CCOC(=O)C1=C(COC(=O)c2cccc(Cl)c2)NC(=O)NC1C (centres unmarked) | -0.354 |
| O=[N+]([O-])c1ccc(Cl)c(NC2=NCCCCC2)c1 | 5.89 |
| O=C(NCCc1ccccc1)c1cccs1 | 2.92 |
| O=c1c2ccccc2nc(/C=C\c2ccccc2[N+](=O)[O-])n1-c1ccccc1O | -22.8 |
| Cc1noc(C)c1C(=O)N1CCC(CO)(Cc2ccccc2)CC1 | -3.05 |
| COCCN(CCNC(=O)c1ccc(NC2=NC3CS(=O)(=O)CC3S2)cc1)Cc1ccco1 (centres unmarked) | -13.9 |
| CCN(CC)c1c([N+](=O)[O-])c(=O)oc2ccccc12 | -8.9 |
| O=C(CCCC(=O)n1cnc2ccccc21)n1cnc2ccccc21 | 6.71 |
| O=C(CCC1CCCN(C(=O)c2ccoc2)C1)NCc1ccccc1F (centres unmarked) | -2.72 |
| Cc1ccc(S(=O)(=O)N2CCC(C(=O)O)CC2)cc1 | 27.9 |
| CCC(C)(C(=O)NC1CCCCC1)N(C)C(=O)c1ccc2c(c1)OCO2 (centres unmarked) | 12 |

| Structure (SMILES) | hERG current change (%, negative = inhibition) at 10uM [%] |
| --- | --- |
| COCc1nnc(NC(=O)c2ccc(S(=O)(=O)N(CC(C)C)CC(C)C)cc2)o1 | -7.19 |
| CCOc1ccccc1N1CCN(C(=O)c2cc(-c3cccnc3)nc3c(Cl)cccc23)CC1 | 1.84 |
| CC(=O)Nc1cccc(C(=O)OCC(=O)c2ccccc2Cl)c1 | 7.03 |
| COc1cc(/C=N/NC(=O)Cc2ccccc2)ccc1Oc1ccc([N+](=O)[O-])cc1[N+](=O)[O-] | 1.03 |
| CCN(CC)S(=O)(=O)N1CCC(C(=O)NCCC2=CCCCC2)CC1 | -3.66 |
| Cc1ccnc(NC(=O)CCC(=O)N(CC(=O)NCc2ccc(F)cc2)Cc2ccccc2)c1 | -33.3 |
| Cc1csc(NC(=O)CSc2nnc(Cc3cccn3C)n2-c2ccc(F)cc2)n1 | -7.8 |
| COc1ccc(CCNC(=O)C(=O)c2c(C)n(C)c3ccccc23)cc1OC | 10.9 |
| COc1cccc(/C=C/C(=O)c2ccc3c(c2)OCO3)c1OC | 1.82 |
| Cc1nnc(SC(C)C(=O)Nc2ccc3ccccc3c2)n1C (centres unmarked) | -3.23 |
| O=C(Oc1ccc(-c2nnco2)cc1)N1CCCCC1 | 7.42 |
| O=C1N=C(N2CCCCC2)SC1=C1CCCCC1 | -9.8 |
| CS(=O)(=O)N1CCc2cc(C(=O)Nc3ccc(COCC(F)(F)F)cc3)ccc21 | 5.62 |
| Cc1c(C(=O)N2CCCC2)nnn1-c1nonc1N | 8.67 |
| O=[N+]([O-])c1ccc(/C=N/Nc2nc(-c3ccccc3)c3cc(Br)ccc3n2)o1 | -4.84 |
| CCCNC(=O)NC(=O)COC(=O)c1oc2ccc(OCC)cc2c1C | 3.45 |
| Cc1oc(C)c(C(=O)O)c1C(=O)O | 16 |
| CN(Cc1ccccc1)S(=O)(=O)c1ccc(NC(=O)c2ccccc2C(=O)O)cc1 | -5.78 |
| O=C1C2C3C=CC(C3)C2C(=O)N1c1ccc(-c2nc3ccccc3o2)cc1 (centres unmarked) | 15.6 |

| Structure (SMILES) | hERG current change (%, negative = inhibition) at 10uM [%] |
| --- | --- |
| CCCCOc1ccc(-c2nnn(CC(=O)NCCc3c[nH]c4ccccc34)n2)cc1 | -4.29 |
| O=C(C1CCN(S(=O)(=O)c2cccc3nsnc23)CC1)N1CCc2ccccc2C1 | -42.4 |
| CCCn1c(C)cc(=O)c2cc(NC(=O)c3ccccn3)ccc21 | -32.9 |
| COc1ccccc1NC(=O)CN1C(=O)CC(C)S(=O)(=O)c2ccccc21 (centres unmarked) | -5.13 |
| Cc1nc(Nc2ccccc2)[nH]c(=O)c1CCC(C)C | 2.21 |
| O=C(NCc1cccs1)c1cccc(S(=O)(=O)N2CCCCC2)c1 | -29.5 |
| O=C(Nc1cccc(C(F)(F)F)c1)c1cc(Br)cc2c1OCC2 | 7.24 |
| CC(=O)Nc1cccc(NC(=O)c2cccc(-c3ccc(O)cc3)c2)c1 | -2.6 |
| CCOc1cc(C2C(C(=O)OC)=CN(C3CCCC3)C=C2C(=O)OC)cc(Br)c1O | -1.51 |
| O=P(c1ccccc1)(c1ccccc1)c1ccc(O)cc1 | 3.4 |
| CC(=O)Nc1ccc(C2NC(=O)c3ccccc3O2)cc1 (centres unmarked) | 3.49 |
| COc1ccc(C2(O)CCN(C(=O)c3ccc4c(c3)OCO4)CC2)cc1 | -0.242 |
| O=C(NCc1cccnc1)c1cccc(S(=O)(=O)N2CCCCC2)c1 | -5.56 |
| Cc1cnc(C(=O)OCC(=O)NC2CCCCCCC2)cn1 | 7.16 |
| COc1ccc(-n2c(=S)[nH]c3cc(C(=O)NCc4ccccc4)ccc3c2=O)c(OC)c1 | 20.9 |
| O=C(CCCN1C(=O)c2ccccc2C1=O)NC1CCCCCC1 | 4.1 |
| CCOC(=O)c1c(NC(=O)C2COc3ccccc3O2)sc2c1CCN(Cc1ccccc1)C2.Cl (centres unmarked) | 0.603 |
| CC(C)[C@H](NC(=O)Nc1cccc(Br)c1)C(=O)O | -8.58 |
